Assay results as given in paper PMC4081100.
This is a selection; strong and weak results do not stand in their true shares. For part of these data: At the low end of the ranking the order means little. The list shows a part of the results. For part of these data: The exact form of the protein is not confirmed.

Molecular target: T1, GST-VND7 NAC domain (UniProt Q9C8W9)
T1 sequence: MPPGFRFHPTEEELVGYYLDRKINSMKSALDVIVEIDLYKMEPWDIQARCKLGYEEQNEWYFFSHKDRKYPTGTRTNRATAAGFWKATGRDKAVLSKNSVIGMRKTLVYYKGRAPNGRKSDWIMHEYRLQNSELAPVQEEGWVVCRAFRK
Assay: universal protein binding microarray (PBM)
Details: high values mean tight binding; double strand, one strand shown

Row | Sequence | binding signal
1 | AGGGAAAT | 0.014 E-score
2 | CAGGGAAA | -0.00497 E-score
3 | CACGGAAC | 0.478 E-score
4 | ACGGAACC | 0.435 E-score
5 | AGTTACGC | 0.0942 E-score
6 | ATTGACTA | -0.0284 E-score
7 | GTAACGTA | 0.402 E-score
8 | CACGCAAG | 0.367 E-score
9 | CTTGACTC | 0.00536 E-score
10 | CACGCATA | -0.0207 E-score
11 | ATACGCCA | 0.247 E-score
12 | CACGTTAG | 0.0853 E-score
13 | GTATTGAC | 0.0877 E-score
14 | TTAGTCAA | 0.005 E-score
15 | ATAGTCAA | 0.12 E-score
16 | AAAAAGTC | 0.0465 E-score
17 | TGCGTACA | 0.281 E-score
18 | ACGTAACT | 0.474 E-score
19 | GATGCGTA | 0.186 E-score

Row | Sequence | binding signal
20 | AAGGTCAG | -0.061 E-score
21 | AATGGTCA | -0.0587 E-score
22 | ACACACGC | 0.213 E-score
23 | GTTGAGTA | 0.108 E-score
24 | TGGCGTAA | 0.246 E-score
25 | CTTGACCA | -0.0975 E-score
26 | TACGTAAA | 0.43 E-score
27 | ATGCCGTG | 0.447 E-score
28 | ATTGGTCA | -0.0967 E-score
29 | ACGTCACC | 0.28 E-score
30 | GACGTGTA | 0.338 E-score
31 | ATGTTGAC | -0.117 E-score
32 | AAGCAAAG | 0.25 E-score
33 | TTACGAAA | 0.233 E-score
34 | ACACGGTA | 0.123 E-score
35 | AAGCAATC | 0.289 E-score
36 | AAATACGT | 0.263 E-score
37 | TTACGCAA | 0.468 E-score
38 | CGTACGCA | 0.341 E-score

Molecular target: T2, GST-VOZ2 (Arabidopsis thaliana) (UniProt Q9SLB9)
T2 sequence: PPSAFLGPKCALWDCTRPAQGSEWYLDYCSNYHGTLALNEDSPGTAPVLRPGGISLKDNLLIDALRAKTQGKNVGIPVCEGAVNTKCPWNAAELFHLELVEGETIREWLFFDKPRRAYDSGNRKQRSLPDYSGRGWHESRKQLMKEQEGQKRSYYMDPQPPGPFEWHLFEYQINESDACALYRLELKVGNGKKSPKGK
Assay: universal protein binding microarray (PBM)
Details: high values mean tight binding; double strand, one strand shown

Row | Sequence | binding signal
39 | AGGGAAAT | 0.0889 E-score
40 | CAGGGAAA | 0.0633 E-score
41 | CACGGAAC | -0.129 E-score
42 | ACGGAACC | -0.132 E-score
43 | AGTTACGC | 0.095 E-score
44 | ATTGACTA | 0.141 E-score
45 | GTAACGTA | 0.182 E-score
46 | CACGCAAG | -0.0452 E-score
47 | CTTGACTC | -0.108 E-score
48 | CACGCATA | 0.0497 E-score
49 | ATACGCCA | 0.176 E-score
50 | CACGTTAG | -0.233 E-score
51 | GTATTGAC | 0.0657 E-score
52 | TTAGTCAA | 0.0916 E-score
53 | ATAGTCAA | 0.148 E-score
54 | AAAAAGTC | 0.0946 E-score
55 | TGCGTACA | 0.221 E-score
56 | ACGTAACT | 0.0376 E-score
57 | GATGCGTA | 0.119 E-score

Row | Sequence | binding signal
58 | AAGGTCAG | 0.0345 E-score
59 | AATGGTCA | 0.0565 E-score
60 | ACACACGC | 0.0306 E-score
61 | GTTGAGTA | 0.171 E-score
62 | TGGCGTAA | 0.108 E-score
63 | CTTGACCA | 0.0611 E-score
64 | TACGTAAA | 0.109 E-score
65 | ATGCCGTG | -0.117 E-score
66 | ATTGGTCA | -0.00703 E-score
67 | ACGTCACC | 0.0743 E-score
68 | GACGTGTA | 0.0963 E-score
69 | ATGTTGAC | 0.101 E-score
70 | AAGCAAAG | 0.057 E-score
71 | TTACGAAA | 0.101 E-score
72 | ACACGGTA | -0.0877 E-score
73 | AAGCAATC | -0.0691 E-score
74 | AAATACGT | 0.151 E-score
75 | TTACGCAA | 0.276 E-score
76 | CGTACGCA | 0.0744 E-score

Molecular target: GST-WRKY1(266-371) (UniProt Q9SI37)
Assay: universal protein binding microarray (PBM)
Details: transcription factors of Arabidopsis thaliana; high values mean tight binding; most listed sequences are background and not binding sites; double strand, one strand shown

Row | Sequence | binding signal
77 | AGGGAAAT | -0.153 E-score
78 | CAGGGAAA | -0.0612 E-score
79 | CACGGAAC | 0.0132 E-score
80 | ACGGAACC | -0.079 E-score
81 | AGTTACGC | -0.125 E-score
82 | ATTGACTA | 0.466 E-score
83 | GTAACGTA | -0.0479 E-score
84 | CACGCAAG | 0.0865 E-score
85 | CTTGACTC | 0.466 E-score
86 | CACGCATA | -0.0365 E-score
87 | ATACGCCA | -0.0912 E-score
88 | CACGTTAG | -0.0455 E-score
89 | GTATTGAC | 0.455 E-score
90 | TTAGTCAA | 0.481 E-score
91 | ATAGTCAA | 0.473 E-score
92 | AAAAAGTC | 0.426 E-score
93 | TGCGTACA | -0.0302 E-score
94 | ACGTAACT | -0.0383 E-score
95 | GATGCGTA | -0.0693 E-score

Row | Sequence | binding signal
96 | AAGGTCAG | 0.425 E-score
97 | AATGGTCA | 0.434 E-score
98 | ACACACGC | -0.0382 E-score
99 | GTTGAGTA | -0.0405 E-score
100 | TGGCGTAA | -0.171 E-score
101 | CTTGACCA | 0.484 E-score
102 | TACGTAAA | 0.00836 E-score
103 | ATGCCGTG | -0.101 E-score
104 | ATTGGTCA | 0.454 E-score
105 | ACGTCACC | -1.5e-05 E-score
106 | GACGTGTA | -0.0115 E-score
107 | ATGTTGAC | 0.474 E-score
108 | AAGCAAAG | 0.019 E-score
109 | TTACGAAA | 0.0327 E-score
110 | ACACGGTA | 0.0158 E-score
111 | AAGCAATC | -0.103 E-score
112 | AAATACGT | -0.0215 E-score
113 | TTACGCAA | 0.0317 E-score
114 | CGTACGCA | 0.0213 E-score
